# ± gives the standard deviation of the averaged measurements. The list shows a part of the results.
# Tested on: PfAP2-EXP AP2 domain (GST-tagged)
# Experiment: gcPBM binding intensity (ln(normalized median fluorescence intensity)); higher = stronger DNA binding
# Method in brief: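 In this array assay, P. falciparum DNA-binding domains with a GST tag, expressed in E. coli, were applied for 1 h to primer-extended double-stranded 36-bp intergenic genomic probes and negative controls on an Agilent 4 × 180k array. Bound protein was visualised with Alexa488 anti-GST antibody at 488 nm. Binding intensity is the highest Masliner-normalised natural-log median intensity across replicate spots of either probe orientation.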
row,Sequence,gcPBM binding intensity (ln)
1,TTTATTTATTATTAAAGTACTAAATCATATTATTAT [XGTACX_site992],8.11 ± 0.3
2,TATACATTATCTTATGCATGCGCATCTGCATATAAA [TGCATGCA_site266],9.63 ± 0.29
3,TATTTATATATTATGTGTCCACATGTAAGCTATCTT [XGTACX_site3887],8.57 ± 0.22
4,CCACTAATAAATATTACACACATATATATATATATT [CACACA_site3128],8.53 ± 0.32
5,TTTTCTTTTTTCTGTTGTACTAAAAATAATTTTGTA [XGTACX_site5171],8.78 ± 0.48
6,ATATATACATATAACACACACATATATATATATATA [CACACA_site2575],10.1 ± 0.49
7,AGTATAAATAAATCATAAACATATATATATATATAT [GTGCAC_negctrl_site356],9.99 ± 0.52
8,ATTCATTTCTATTTTACACACAATAAGTAACTTAAT [CACACA_site2850],8.69 ± 0.47
9,CTCATCCTTACATACACACACATATATATATATATA [CACACA_site103],10.2 ± 0.29
10,ATATTTAAATCGAAGGTGCGTATTTCCTTTTTTTTT [GTGCAC_site9632],8.56 ± 0.32
11,ATTATTATATATATAACACACATAATTATATACTTA [CACACA_site1563],8.52 ± 0.4
12,TCCTTAAAAATCTAAAAAGAAAAAAACATATATTTT [GTGCAC_negctrl_site123],8.04 ± 0.45
13,TATACCTATAAATACACACACATATATAAATATGTA [CACACA_site6625],8.38 ± 0.26
14,AAATAAAAACCATATCGTACAAAAATTTTTGTATTT [XGTACX_site7497],8.62 ± 0.35
15,ATATATATATATATATGTACTTAAAAATTTGTTTTG [XGTACX_site1514],10.1 ± 0.62
16,GATCACTGAATAAAGGCACACATCTGACTAATTTTT [CACACA_site66],8.36 ± 0.39
17,AAGTCAATTTTTTTTTTTTTTTTTTAACTTATTAAT [TGCATGCA_negctrl_site14],8.09 ± 0.46
18,AATGTATATAATATTAATATGTAAATATATAATCAA [CACACA_negctrl_site1683],8.4 ± 0.34
19,TGAATAAATATATATACACACCCATATATATATATA [CACACA_site8833],10.1 ± 0.28
20,TTAAAAAGTGCGTAGTGTACTAATATAAATAATACA [XGTACX_site2922],8.57 ± 0.16
21,TGTTAATTAAAGGACTGTACACTAATAATTCTATAA [XGTACX_site5195],8.5 ± 0.34
22,TCATATGTTTCATGTTGTACATTGAAAGTTTGGCTA [XGTACX_site3202],8.39 ± 0.36

row,Sequence,gcPBM binding intensity (ln)
1,AAATATGTACATATTATATATATATAATATATATTG [TGCATGCA_negctrl_site438],8.3 ± 0.4
2,GTTCTAATATATTGCACACGTAAAAATATAGGTAAT [CACACA_site886],8.83 ± 0.4
3,AAAAAAAAAATATATATATATATATATATATAATTT [GTGCAC_negctrl_site32],8.56 ± 0.13
4,AATAAATATAGATTCACACACAAACATATATAAATA [CACACA_site7814],8.55 ± 0.37
5,AAGAAAAAAATTTATACAAGAATTTTTTATTATTAA [TGCATGCA_negctrl_site587],8.01 ± 0.62
6,TAATTGTACGCCAATACACACAGAATTAGAATGTAG [CACACA_site102],8.71 ± 0.43
7,ATAAATAAATGGTGTTGTACTCTATTATATATATAT [XGTACX_site7835],9.48 ± 0.12
8,TTTTATTGTTGTTATACACACCATATAAAATATTTC [CACACA_site4983],8.55 ± 0.38
9,ATTCACTAAAAAATTGCATGCAATAAATTTTTTTTT [TGCATGCA_site962],9.68 ± 0.11
10,AATTGATTTATATATTGTACATATAAATTTATGTAT [XGTACX_site7785],8.31 ± 0.22
11,AAGAAAATTAAATTAACACACATAAATATATATATA [CACACA_site1664],9.72 ± 0.11
12,GAGTTATTTCTTATTTAAGCATTCTACATATATATA [CACACA_negctrl_site239],8.25 ± 0.16
13,ATTTTACATATTTGCACACATATATTTAAATACATA [CACACA_site4627],8.77 ± 0.24
14,ATATTTATCTTTTTATGTACATATGCCCCTTTTCTG [XGTACX_site673],9.13 ± 0.7
15,TCTTGGTTATTAAAAAAAAAAAAATATATTTTTCCT [TGCATGCA_negctrl_site445],8.09 ± 0.59
16,GTCCTTATGGATGATAAATTATTTTAAATATTCTAT [XGTACX_negctrl_site200],8.03 ± 0.38
17,AATAAAAAATATATGAGTACTAAATTGTTTTCTTAA [XGTACX_site8573],8.33 ± 0.49
18,TTGCATATTTCTAATTGTACATTATTTTATTTTATA [XGTACX_site8451],8.74 ± 0.42
19,GGGAAAATAAATAAAGTGCAGATATTAAAAGTTGTA,8.85 ± 0.28
20,CTCAACGATAGAGAAACATGCAAGTATAAGCAACTA [TGCATGCA_site771],9.02 ± 0.49
21,CATAGATACATACACGCACACACATATATATATATA [CACACA_site13],9.97 ± 0.36
22,GTATTACCTTATTATTGTACTTTCATGATATATATG [XGTACX_site5382],9.02 ± 0.41

row,Sequence,gcPBM binding intensity (ln)
1,TTAATGAATGGACACACACACATATATATATATATT [CACACA_site5294],8.62 ± 0.39
2,AACATACATGTATATAGTACATATTACATCTGATAC [XGTACX_site3649],8.51 ± 0.52
3,ATGTAATTATAAGATTAATATACATAATTATATGTA [GTGCAC_negctrl_site458],8.1 ± 0.37
4,TACACAAGAAAATTCACACACACACCCATATATATA [CACACA_site3879],8.75 ± 0.34
5,CATATAAAAGGACACACACACACATATAAATATGTA [CACACA_site6568],8.53 ± 0.51
6,ATTTTTATAGAATGAACACACATATTATAGCATTTA [CACACA_site6842],8.45 ± 0.38
7,TGCTATTTTATTTATTCTTTTATAAAAGTATAATAT [XGTACX_negctrl_site358],8.64 ± 0.39
8,ATAAAAAAAATTTGCACACCTTCAAAGTAATATATA [CACACA_site1584],8.47 ± 0.25
9,AAAAAAAAAAAAAGTACATGCAATATGGATCTTAAA [TGCATGCA_site367],8.96 ± 0.6
10,TAATTTTTTTTTTTTTTTTTTGTACTTCATTTTTAT [CACACA_negctrl_site1395],8.18 ± 0.55
11,TATATATAAAAAAGCACACATACATACATACATAAT [CACACA_site890],8.9 ± 0.42
12,TTTTCACTTTTAAAAACATGCATACTTTATAAAATA [TGCATGCA_site967],8.56 ± 0.44
13,AACATTCTAAAACACACACACACATATATATATATA [CACACA_site1052],10.1 ± 0.42
14,TACACAAGCGGACACACACACATATATATATATATA [CACACA_site4832],10.3 ± 0.13
15,AAAAAAAAAAAACACACACACACATAAATATATATA [CACACA_site149],8.55 ± 0.41
16,TATTAACATATATAAAGTACATTAAACAACATTGTA [XGTACX_site7667],8.53 ± 0.4
17,TGTAAATTTGGCATCACACATAAATAAACATATAAA [CACACA_site4497],8.74 ± 0.35
18,AAAAGAAATATTTATACACACACACTAACATATATA [CACACA_site8580],8.73 ± 0.42
19,TTATCATTTTAATGGTGTACTCAATAAAAACTTTAA [XGTACX_site4595],8.24 ± 0.099
20,TTATATATAATTACATGTACGTAGTATTATTTAAAT [XGTACX_site3418],8.56 ± 0.43
21,GTGAAAAAAAACATATGTACTTATACACTAATCTAT [XGTACX_site7600],8.49 ± 0.35
22,ATGTCTATAATAAGAACACACATATATTTAATTTAA [CACACA_site7394],8.21 ± 0.45

row,Sequence,gcPBM binding intensity (ln)
1,TGGTAAAGGAGCAAGATGATAAATCTCCATAACTTT [CACACA_negctrl_site492],8.28 ± 0.6
2,GTTGGTACCTTACTTTTACACACTTTTTTTTTTTTT [CACACA_site8441],8.88 ± 0.59
3,TATATATATATGTATACACACATACAAATATGTAAA [CACACA_site9238],9.81 ± 0.16
4,CTATATTCGTTTAATAGTACATATATAACTAGACAA [XGTACX_site5770],8.48 ± 0.37
5,ACTACATTATGTCATACATGCATACATACGTGGTTT [TGCATGCA_site732],8.92 ± 0.3
6,CATTAAAAGTATAATTGTACTTTTCATTTATATATT [XGTACX_site7536],8.38 ± 0.29
7,AGTAATTTAAGGAATACACACAAGAAAAAAATAAGA [CACACA_site6177],8.96 ± 0.54
8,TAATATATATATATATGTACATATATATTATGTATA [XGTACX_site4690],8.4 ± 0.27
9,TTCTCAAAATTAAAATAACAGATTAACGAACTAACG [CACACA_negctrl_site1720],8.56 ± 0.36
10,AGATTATTTAGAATGTGTACATATTACACATACATG [XGTACX_site8634],8.51 ± 0.25
11,CATACATACAAACACACACACACACCCATATATATA [CACACA_site2918],8.79 ± 0.23
12,GTATACCTTTTGACATGTACGTATGTATATTTGGGT [XGTACX_site720],8.85 ± 0.42
13,TTTTTAACCAAACATCAAAACATATTTTTTTGTTAT [CACACA_negctrl_site385],8.31 ± 0.39
14,TATGTTTTTACATATTGTACATATTCTTGTAATACG [XGTACX_site1179],8.46 ± 0.29
15,ATTATAATGTTAATGTGTACATATGATTCCTTAATT [XGTACX_site181],8.87 ± 0.42
16,TATGTGTGCAAAAACTGTACACATTAAAGGTATATA [XGTACX_site7627],8.59 ± 0.25
17,TAATAACATACAGACACACACGTAAAAGCACGTGTA [CACACA_site4299],8.54 ± 0.32
18,TACTTTCAAAAGATCACACATATATATATATATATA [CACACA_site5630],10.39 ± 0.085
19,ATGACATGTTCTAAATGTACATTTTTTAACCCTTTT [XGTACX_site1858],8.77 ± 0.5
20,ATAAATAAATAAGTACATATATATATGTATATATAT [TGCATGCA_negctrl_site223],8.775 ± 0.021
21,TATACAAGTATATAGGTGCATATATAAGTATATATT [GTGCAC_site9994],8.6 ± 0.11
22,TATGGTTACATTATATGTACTAAACGAATATTTTTA [XGTACX_site5694],8.24 ± 0.39
